Measurements taken from PubChem BioAssay AID1259407 (Chemical Carcinogenesis Research Information System (CCRIS), 2018).
Entries after “also recorded” stand apart in the source; their conditions may differ. A number of entries come with more than one value. The list is limited to them. How the calls were made is not given here. The source may hold further records. Values that stand side by side differ, and nothing given here explains why; some may be repeats, others may stem from another dose, organism or construct than stated. Marks in square brackets tell the records apart. Letters hold for one entry only. Counts like (3×) count equal records among those shown.

Test system: CCRIS mutagenicity, Ames/micronucleus/aberration tests
Test: CCRIS mutagenicity studies
[1] = Test System: AMES SALMONELLA TYPHIMURIUM, Strain/Indicator: TA1535, Metabolic Activation: NONE, Method: PREINCUBATION
[2] = Test System: AMES SALMONELLA TYPHIMURIUM, Strain/Indicator: TA98, Metabolic Activation: NONE, Method: STANDARD PLATE
[3] = Test System: AMES SALMONELLA TYPHIMURIUM, Strain/Indicator: TA100, Metabolic Activation: NONE, Method: STANDARD PLATE
[4] = Test System: AMES SALMONELLA TYPHIMURIUM, Strain/Indicator: TA98, Metabolic Activation: RAT, LIVER, S-9, AROCLOR 1254, Method: STANDARD PLATE
[5] = End Point: IN VITRO CHROMOSOMAL ABERRATIONS, Test System: CHL CELLS, Metabolic Activation: NONE
[6] = Test System: AMES SALMONELLA TYPHIMURIUM, Strain/Indicator: TA100, Metabolic Activation: NONE, Method: PREINCUBATION
[7] = Test System: MOUSE LYMPHOMA, Strain/Indicator: L5178Y (TK+/TK-), Metabolic Activation: NONE, Method: SUSPENSION/PLATE
[8] = End Point: In vitro chromosomal aberrations, Test System: Chinese hamster lung (CHL/IU) cells, Metabolic Activation: None
[9] = Test System: AMES SALMONELLA TYPHIMURIUM, Strain/Indicator: TA98, Metabolic Activation: NONE, Method: PREINCUBATION
[10] = Test System: AMES SALMONELLA TYPHIMURIUM, Strain/Indicator: TA100, Metabolic Activation: RAT, LIVER, S-9, AROCLOR 1254, Method: STANDARD PLATE
[11] = End Point: IN VITRO CHROMOSOMAL ABERRATIONS, Test System: CHO CELLS, Metabolic Activation: RAT, LIVER, S-9, AROCLOR 1254
[12] = End Point: IN VITRO CHROMOSOMAL ABERRATIONS, Test System: CHINESE HAMSTER LUNG CELLS (CHL), Metabolic Activation: NONE
[13] = End Point: IN VITRO CHROMOSOMAL ABERRATIONS, Test System: CHO CELLS, Metabolic Activation: NONE

`O=CC=O` was tested, and the mutagenic call (Test System: AMES SALMONELLA TYPHIMURIUM, Strain/Indicator: TA98, Metabolic Activation: RAT LIVER S-9, PHENOBARBITAL AND BETA-NAPHTHOFLAVONE, Method: PREINCUBATION) was “inactive; negative and active; positive”, the mutagenic call (Test System: AMES SALMONELLA TYPHIMURIUM, Strain/Indicator: TA102, Metabolic Activation: NONE, Method: PREINCUBATION) was “active; positive [study A] and inactive; negative [study B] and active; positive [study C]” and the mutagenic call [1] was “inactive; negative and active; positive”.
`N#Cc1ccc(/C=C/c2ccc([N+](=O)[O-])cc2)cc1` was tested, and the mutagenic call [2] was “active; positive [study A] and inactive; negative [study B]” and the mutagenic call [3] was “active; positive [study A] and inactive; negative [study B]”.
In the case of `C1CC[C@H]2O[C@H]2C1`, the mutagenic call [2] is reported as “inactive; negative [study A] and active; positive [study B]”.
With `Cc1ccccc1N` the mutagenic call [4] was “active; positive [study A] and inactive; negative [study B]”.
With `CC(=O)NO` the mutagenic call [3] was “inactive; negative [study A] and active; positive [study B]”.
For `CCN(CC)C(=O)/C(Cl)=C(\C)OP(=O)(OC)OC`, the mutagenic call [3] was “inactive; negative and active; positive”.
`CNN` was tested, and the mutagenic call [5] was “inactive; negative; authors report results as equivocal; also recorded: active; positive (structural changes) (2×)”, the mutagenic call [6] was “inactive; negative and active; positive” and the mutagenic call [1] was “inactive; negative [study A] and active; positive [study A] and inactive; negative [study B]”. For the same compound, the mutagenic call (Test System: E.COLI, Strain/Indicator: WP2UVRA, Metabolic Activation: NONE, Method: PREINCUBATION) was “inactive; negative and active; positive”.
In the case of `CC=O`, the mutagenic call [7] is reported as “active; positive. reevaluation of results: positive [study A]; also recorded: active; positive [study B]”.
For `O=C(O)c1ccccc1[N+](=O)[O-]`, the mutagenic call [6] was “active; positive [study A] and inactive; negative [study B] and inactive; negative [study C]”.
For `CCOP(=O)(OCC)O/C(=C\Cl)c1ccc(Cl)cc1Cl`, the mutagenic call [3] was “active; positive [study A] and inactive; negative [study B]”.
For `C1CSCCS1`, the mutagenic call [2] was “active; positive [study A] and inactive; negative [study B]” and the mutagenic call [3] was “active; positive [study A] and inactive; negative [study B]”.
With `Nc1ccccc1S` the mutagenic call [8] was “active; positive (structural changes and ploidy) (2×); also recorded: active; positive (structural changes and ploidy). weak response” and the mutagenic call [9] was “inactive; negative and active; positive”.
`Nc1ccccc1-c1ccccc1` was tested, and the mutagenic call [4] was “inactive; negative [study A] and active; positive [study B]” and the mutagenic call [10] was “inactive; negative [study A] and active; positive [study B] and active; positive [study C]”.
For `COc1cccc2c1C(=O)c1c(O)c3c(c(O)c1C2=O)C[C@@](O)(C(=O)CO)C[C@@H]3O[C@H]1C[C@H](N)[C@H](O)[C@H](C)O1`, the mutagenic call (End Point: In vitro chromosomal aberrations, Test System: Chinese hamster ovary (CHO-9) cells, Metabolic Activation: None) was “active; positive (structural changes); pretreatment with curcumin increased the effect o; also recorded: active; positive (structural changes)”, the mutagenic call (End Point: In vivo micronucleus, Test System: Bone marrow erythrocytes, Species: Mouse, Strain/Sex: Swiss albino/Male, Route: Intraperitoneal) was “active; positive (weaker response than with doxorubicin alone); also recorded: active; positive (all regimens)” and the mutagenic call [3] was “inactive; negative [study A] and active; positive [study B] and inactive; negative [study C]”. The mutagenic call (Test System: CHINESE HAMSTER V-79, Strain/Indicator: V-79/6-THIOGUANINE, Metabolic Activation: NONE, Method: SUSPENSION/PLATE) was “inactive; negative [study A] and active; positive [study B]”.
In the case of `O=C1[C@H]2CC=CC[C@H]2C(=O)N1SC(Cl)(Cl)Cl`, the mutagenic call [10] is reported as “active; positive and inactive; negative” and the mutagenic call (Test System: AMES SALMONELLA TYPHIMURIUM, Strain/Indicator: TA104, Metabolic Activation: NONE, Method: STANDARD PLATE) is reported as “active; positive (2×) and inactive; negative”.
`CCC1CO1` (configuration not stated) was tested, and the mutagenic call [11] was “inactive; negative (2×) and active; positive”.
For `BrCCCCBr`, the mutagenic call [5] was “active; positive (structural changes) (2×); also recorded: active; positive (structural and ploidy changes)” and the mutagenic call (Test System: AMES SALMONELLA TYPHIMURIUM, Strain/Indicator: TA100, Metabolic Activation: RAT LIVER S-9, PHENOBARBITAL AND BETA-NAPHTHOFLAVONE, Method: PREINCUBATION) was “inactive; negative and active; positive”.
`CCCN(CCC)N=O` was tested, and the mutagenic call (Test System: AMES SALMONELLA TYPHIMURIUM, Strain/Indicator: TA100, Metabolic Activation: MOUSE, LIVER, S-9, Method: PREINCUBATION) was “inactive; negative [study A] and active; positive [study B]”, the mutagenic call (Test System: AMES SALMONELLA TYPHIMURIUM, Strain/Indicator: TA2410, Metabolic Activation: NONE, Method: HOST-MEDIATED) was “inactive; negative and active; positive” and the mutagenic call (Test System: AMES SALMONELLA TYPHIMURIUM, Strain/Indicator: TA2678, Metabolic Activation: NONE, Method: HOST-MEDIATED) was “inactive; negative and active; positive”.
For `CN(C)C(=S)SSC(=S)N(C)C`, the mutagenic call [2] was “active; positive [study A] and active; positive [study B] and inactive; negative [study C]”.
In the case of `CC(=O)c1ccc[nH]1`, the mutagenic call [2] is reported as “active; positive [study A] and inactive; negative [study B]” and the mutagenic call [4] is reported as “inactive; negative [study A] and active; positive [study B]”.
With `CCN(CC)c1ccc(N)cc1` the mutagenic call [12] was “active; positive at highest dose (structural changes); also recorded: inactive; negative; also recorded: active; positive (structural changes)”.
For `Nc1ccc2c(c1)C(=O)c1ccc(N)cc1C2=O`, the mutagenic call (Test System: AMES SALMONELLA TYPHIMURIUM, Strain/Indicator: TA1538, Metabolic Activation: RAT, LIVER, S-9, AROCLOR 1254, Method: STANDARD PLATE) was “active; positive and inactive; negative”.
`CCN(CC)c1cc(NC(C)=O)c(N=Nc2c(Cl)cc([N+](=O)[O-])cc2[N+](=O)[O-])cc1OC` was tested, and the mutagenic call [5] was “inactive; negative (2×); also recorded: inactive; negative; authors report equivocal results for ploidy changes”.
With `Nc1ccc(Oc2ccc(N)cc2)cc1` the mutagenic call [13] was “inactive; negative; positive response at 160 ug/ml; precipitation occurred at 1600 and 200; also recorded: active; positive; precipitation occurred at 2000 and 3000 ug/ml (2×)”, the mutagenic call [9] was “inactive; negative [study A] and active; positive [study B] and inactive; negative [study C]” and the mutagenic call [6] was “inactive; negative [study A] and active; positive [study B] and inactive; negative [study C]”.
For `C=CCOC(=O)CC(C)C`, the mutagenic call [11] was “inactive; negative and active; positive”.
With `CC(=O)N1CCc2cc([N+](=O)[O-])ccc21` the mutagenic call [5] was “inactive; negative and active; positive (ploidy changes)”.
For `S.S.S.[As].[As]`, the mutagenic call (End Point: IN VIVO MICRONUCLEUS, Test System: BONE MARROW POLYCHROMATIC ERYTHROCYTES, Species: MOUSE, Strain/Sex: CBA/MALE, Route: ORAL) was “inactive; negative (2×) and active; positive”.
In the case of `Nc1ncn([C@@H]2O[C@H](CO)[C@@H](O)[C@H]2O)c(=O)n1`, the mutagenic call [7] is reported as “active; positive [study A]; also recorded: active; positive. reevaluation of results: positive [study B]”.
For `C1N2CN3CN1CN(C2)C3`, the mutagenic call [8] was “active; positive (structural changes and ploidy) (2×); also recorded: active; positive (structural changes)” and the mutagenic call [9] was “active; positive [study A] and inactive; negative [study B] and inactive; negative [study C]”.
In the case of `CC(C)Oc1ccc(Nc2ccccc2)cc1`, the mutagenic call [12] is reported as “inactive; negative; authors describe highest dose as inconclusive; also recorded: active; positive at highest dose; also recorded: inactive; negative; authors describe results at highest dose as inconclusive”, the mutagenic call [5] is reported as “inactive; negative (2×) and active; positive (structural changes)” and the mutagenic call [13] is reported as “inactive; negative and active; positive (structural changes) (2×)”.
